# PubChem BioAssay AID2675 (National Center for Advancing Translational Sciences (NCATS), 2010)
# The whole screen tested about 280,000 compounds, of which about 100 (0.036%) were called active. This list was built around the results that the source calls inconclusive (neither active nor inactive); the mix of calls is not that of the screen. Calls follow the shape of the dose curve; as a rule, active = well fitted inhibition curve with a large enough effect in the signal ratio, with a control signal flat (not every such curve was filed as active); inconclusive = small, poorly fitted or top-dose-only effect, or effect the other way, or a change in a side signal; inactive = no such curve, though single readings can be large or run the other way; the % refers to the signal ratio. Where the call is inconclusive, the potency comes from a doubtful curve fit. “Side channel” marks fits to a control or component signal instead of the main read-out.
# Target: Muscleblind-like protein 1 (Homo sapiens) (UniProt Q9NR56)
# Test: qHTS Assay for Inhibitors of MBNL1-poly(CUG) RNA binding
# Conditions: TR-FRET MBNL1-His/biotin-(CUG)12 binding, 665/545 ratio; activity change, negative = inhibition: at 57.5 µM (top of the series)
# Description: NIH Chemical Genomics Center [NCGC] NIH Molecular Libraries Probe Production Centers Network [MLPCN] MLPCN Grant: R03 MH087421-01 Assay Submitter (PI): Charles Thornton NCGC Assay Overview: Expanded CTG repeats in the 3' untranslated region of the DM protein kinase (DMPK) gene causes type I myotonic dystrophy (DM1). DM1 is a multi-systemic disease with a prevalence of 1/7000. Clinical features include myotonia, progressive muscle weakness and wasting, cardiac arrhythmia, insulin resistance, hypersomnolence, cataracts, and other symptoms. The pathogenic effect of expanded CTG repeats stems from deleterious effects of the mutant transcript. CUGexp mRNA accumulates in nuclear foci and sequesters proteins of the muscleblind family, of which MBNL1 is the most common family member in skeletal muscles. The binding interaction between MBNL1 and CUGexp tracts leads to deregulation of alternative splicing and is therefore a key molecular step in the pathogenesis of DM1. To target this binding interaction, we optimized a protein-RNA binding assay in 1536-well format for identification of small molecule inhibitors of biotinylated (CUG)12 and his-tagged MBNL1 binding. Protein-RNA complex of MBNL1-His and Biotin-(CUG)12 captures the detection reagents terbium-labeled anti-His antibody and streptavidin conjugated XL665. This brings the terbium label within close proximity to XL665 to allow time-resolved fluorescence resonance energy transfer (TR-FRET). Inhibitors of MBNL1-(CUG)12 binding will disrupt TR-FRET.
# NCGC Assay Protocol Summary: This is a TR-FRET binding assay with MBNL1-His and Biotin-(CUG)12 RNA. The assay uses a ratiometric measurement. In the presence of MBNL1-(CUG)12 complex, the excitation energy is transferred to the XL665 acceptor label, causing emission at 665nm, while the 545nm donor signal […]. Data were normalized to the controls for basal activity (buffer only) and 100% activity (with MBNL1-(CUG)12). […] The final titration was 92 nM to 58 uM. (3) Add 1 ul of terbium labeled anti-His antibody (0.055 ng/ul final concentration) (4) Add 1 ul of streptavidin-XL665 (5 nM final concentration) (5) Incubate 60 min at room temperature (6) Detect the assay plate in a EnVision plate reader (PerkinElmer) with Ex=340 nm, Em1=665 nm and Em2=545 nm. Keywords: mytonic dystrophy type I, DM1, muscleblind like 1, MBNL1, CUG expansion, protein-RNA binding inhibitor, high throughput screening, MLSMR, MLSCN, NIH Roadmap, qHTS and NCGC
# % is scaled to controls: 0 for no effect and ±100 for the full control effect; potency is read from the fitted curve at half-maximal effect; tags tell the direction and shape of the fitted curve or compound fluorescence and quenching.
# UniProt Q9NR56, sequence (Q9NR56 whole entry, looked up): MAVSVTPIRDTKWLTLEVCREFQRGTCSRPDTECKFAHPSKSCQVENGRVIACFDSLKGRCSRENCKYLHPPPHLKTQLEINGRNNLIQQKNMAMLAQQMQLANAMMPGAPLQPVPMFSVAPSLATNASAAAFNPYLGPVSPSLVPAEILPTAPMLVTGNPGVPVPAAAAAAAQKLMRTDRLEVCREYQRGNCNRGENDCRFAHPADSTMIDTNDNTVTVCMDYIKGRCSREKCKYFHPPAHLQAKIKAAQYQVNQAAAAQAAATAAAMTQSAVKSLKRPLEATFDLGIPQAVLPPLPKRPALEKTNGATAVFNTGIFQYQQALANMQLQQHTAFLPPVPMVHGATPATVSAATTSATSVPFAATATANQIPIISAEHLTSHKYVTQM
SMILES,Potency,"activity change, negative = inhibition"
O=c1c2ccccc2nc(CNc2ccccc2)n1-c1ccccc1,inactive,–
CC(C)OC(=O)c1c(N)n(CC2CCCO2)c2nc3ccccc3nc12 (stereo unspecified),"inconclusive: 31.6 µM [quencher, side channel, single point]",–
CCC(=O)CC(c1ccc([N+](=O)[O-])cc1)c1c(O)c2ccccc2oc1=O (stereo unspecified),"inconclusive: 25.1 µM [quencher, side channel, single point]",–
O=[N+]([O-])c1ccc(N2CCCCCC2)c2ncccc12,"inconclusive: 35.5 µM [quencher, side channel, single point]",–
Nc1nnc(Sc2ncccc2[N+](=O)[O-])s1,"inconclusive: 10 µM [quencher, side channel, partial curve]",–
Cc1cc(N(CCCl)CCCl)ccc1/C=N/NC(=O)c1ccco1,"inconclusive: 31.6 µM [quencher, side channel, single point]",–
NC(=O)c1cc(N2CC2)c([N+](=O)[O-])cc1[N+](=O)[O-],"inconclusive: 7.94 µM [quencher, side channel, partial curve]",–
N#CC(C#N)=NNc1ccc(S(=O)(=O)N2CCCC2)cc1,"inconclusive: 0.708 µM [quencher, side channel, full curve, poor fit]",–
CN1C(=O)NC(=O)/C(=C\c2ccc([N+](=O)[O-])o2)C1=O,"inconclusive: 31.6 µM [quencher, side channel, partial curve]",–
CCCCCSc1cc(OC)c(CCN)cc1OC,inactive,–
CC1=C(C(=O)O)N2C(=O)C(NC(=O)Cc3ccccc3)C2SC1 (stereo unspecified),inactive,–
O=c1cccc2n1C[C@@H]1C[C@@H]2CN(CC(O)c2ccc([N+](=O)[O-])cc2)C1 (stereo partly specified),"inconclusive: 28.2 µM [quencher, side channel, single point]",–
O=C(c1ccc(F)c([N+](=O)[O-])c1)N1CC2CC(C1)c1cccc(=O)n1C2 (stereo unspecified),"inconclusive: 20 µM [quencher, side channel, partial curve]",–
CCn1c(NN=O)nc2ccccc21,inactive,–
Cc1cc(C)n(C(=O)c2ccc([N+](=O)[O-])cc2[N+](=O)[O-])n1,"inconclusive: 10 µM [quencher, partial curve]",–
CN1/C(=C\C=C2C(=O)NC(=O)NC2=O)C(C)(C)c2ccccc21,"inconclusive: 12.6 µM [quencher, side channel, partial curve]",–
O=C(CNC(=O)c1ccccc1)NCC(=O)OCC(=O)c1ccc([N+](=O)[O-])cc1,"inconclusive: 11.2 µM [quencher, side channel, partial curve]",–
CC(=O)OC1(c2ccccc2)CCN(C)C2CCCCC21 (stereo unspecified),"inconclusive: 79.4 µM [inhibitor, single point]",–
Cc1ccccc1CN1CCN(c2ccc(Cl)cc2)CC1,inactive,–
CCN1CCN(Cc2nc3ccc([N+](=O)[O-])cc3c(=O)n2-c2ccccc2F)CC1,"inconclusive: 7.08 µM [quencher, side channel, partial curve]",–
O=c1[nH]c(=S)[nH]c(O)c1N=Nc1cccc(S(=O)(=O)N2CCOCC2)c1,"inconclusive: 12.6 µM [quencher, partial curve]",–

SMILES,Potency,"activity change, negative = inhibition"
O=c1[nH]c(O)c(N=Nc2ccc([N+](=O)[O-])cc2)c(=O)[nH]1,"inconclusive: 3.16 µM [quencher, side channel, full curve]",–
O=C1/C(=C/c2cccc([N+](=O)[O-])c2)N2CCC1CC2,inactive,–
CC(Cc1ccccc1)NC(=O)Cc1ccc([N+](=O)[O-])cc1 (stereo unspecified),"inconclusive: 14.1 µM [quencher, side channel, partial curve]",–
CCOc1ccc(-n2c(O)c(N=Nc3c(C)n(C)n(-c4ccccc4)c3=O)c(=O)[nH]c2=O)cc1,"inconclusive: 8.91 µM [quencher, side channel, full curve]",–
O=C(N/N=C/c1cc(Br)c(Br)s1)c1ccncc1,"inconclusive: 25.1 µM [quencher, side channel, partial curve]",–
O=c1cc(-c2ccc(O)c(O)c2)oc2c(C3O[C@H](CO)[C@@H](O)[C@H](O)[C@H]3O)c(O)cc(O)c12 (stereo partly specified),"inconclusive: 15.8 µM [quencher, side channel, partial curve]",–
COc1ccc(CN2C(=O)NC(=O)/C(=C\c3cc(OC)c(OC)c(OC)c3)C2=O)cc1,inactive,–
COc1cc2c(cc1OC)-c1c3c(cc4c1[C@@H](C2)N(C)CC4)OCO3,"inconclusive: 79.4 µM [inhibitor, single point]",–
CCN1CCN(c2ccc([N+](=O)[O-])cc2C#N)CC1,"inconclusive: 12.6 µM [quencher, side channel, partial curve]",–
N#CC(C#N)=NNc1ccc(S(N)(=O)=O)cc1,"inconclusive: 17.8 µM [quencher, side channel, partial curve]",–
O=C1NC(=O)C(=CN2CCc3ccccc32)C(=O)N1,"inconclusive: 39.8 µM [quencher, side channel, single point]",–
CNc1ccc2nc3ccccc3[n+](C)c2c1,"inconclusive: 3.55 µM [quencher, side channel, partial curve]",–
O=C1NC(=O)N(c2ccc3c(c2)OCO3)C(=O)/C1=C\c1ccc(N2CCCCC2)o1,"inconclusive: 6.31 µM [quencher, side channel, partial curve]",–
CC(C)[C@H]1C(=O)N2CCC[C@H]2[C@]2(O)O[C@](NC(=O)[C@@H]3C=C4c5cccc6[nH]cc(c56)C[C@H]4N(C)C3)(C(C)C)C(=O)N12,"inconclusive: 15.8 µM [quencher, side channel, partial curve]",–
CC(C)C[C@H]1C(=O)N2CCCC2[C@]2(O)O[C@](NC(=O)[C@@H]3C=C4c5cccc6[nH]cc(c56)CC4N(C)C3)(C(C)C)C(=O)N12 (stereo partly specified),"inconclusive: 14.1 µM [quencher, side channel, partial curve]",–
O=S(=O)(c1ccc(Cl)cc1)N1CCCCC1c1cccnc1 (stereo unspecified),inactive,–
C=CCSc1nc2c(c(-c3ccsc3)c1C#N)CN(C)CC2,"inconclusive: 12.6 µM [quencher, partial curve, poor fit]",–
COCCCn1c(N)c(C(=O)NCCC(C)C)c2nc3ccccc3nc21,inactive,–
N=Cc1c(O)n(-c2ccc(C34CC5CC(CC(C5)C3)C4)cc2)c(=O)[nH]c1=O,–,inactive: -1.39% [at 11.5 µM]
O=C1NC(=O)N(c2ccc3c(c2)OCO3)C(=O)/C1=C\c1ccc(-c2ccccc2C(=O)O)o1,inactive,–
O=C(Nc1ccc(Br)cc1C(=O)O)c1ccc2c(c1)C(=O)N(Cc1ccccc1)C2=O,"inconclusive: 14.1 µM [quencher, side channel, partial curve]",–

SMILES,Potency,"activity change, negative = inhibition"
O=c1cc(CN2CCNCC2)nc2sccn12,inactive,–
CCN(CC)c1ccc2c(cc1=O)[C@@H](NC)CCc1cc(OC)c(OC)c(OC)c1-2,"inconclusive: 1 µM [quencher, side channel, full curve]",–
Cc1ncsc1CCOC(=O)c1ccc([N+](=O)[O-])cc1,"inconclusive: 7.08 µM [activator, single point]",–
O=C(O)c1ccccc1Nc1cccc(C(F)(F)F)c1,"inconclusive: 63.1 µM [inhibitor, partial curve]",–
CCOP(=O)(OCC)C(Nc1cccc([N+](=O)[O-])c1)c1ccc(OC)cc1 (stereo unspecified),"inconclusive: 10 µM [quencher, side channel, partial curve]",–
Cc1cccc(-n2c(/C=C/c3ccccn3)nc3ccccc3c2=O)c1,inactive,–
O=C1CN=C(c2cccs2)c2c(sc3c2CCCC3)N1,inactive,–
CC(C)CCNC(=O)c1c(N)n(Cc2ccc3c(c2)OCO3)c2nc3ccccc3nc12,inactive,–
C1=C(c2c[nH]c3ccccc23)CCN(Cc2ccccc2)C1,"inconclusive: 14.1 µM [quencher, side channel, partial curve]",–
C[n+]1c(-c2ccccc2)c2cc(N)ccc2c2ccc(N)cc21,"inconclusive: 10 µM [quencher, side channel, partial curve]",–
CN(C)S(=O)(=O)c1cc(NC(=O)COC(=O)Cc2ccccc2)ccc1Cl,inactive,–
c1ccc2c(c1)Nc1ccccc1S2,"inconclusive: 31.6 µM [quencher, side channel, partial curve]",–
Cc1ccc(N2C(=O)NC(=O)/C(=C\c3ccc([N+](=O)[O-])o3)C2=O)cc1,"inconclusive: 28.2 µM [quencher, side channel, single point]",–
O=C(CCN1CCOCC1)Nc1ccc(Br)cc1C(=O)c1ccccc1,"inconclusive: 14.1 µM [quencher, side channel, partial curve]",–
O=C(Cn1c(=O)c(C(F)(F)F)nc2ccccc21)N1CCC2(CC1)OCCO2,"inconclusive: 8.91 µM [quencher, partial curve]",–
Cc1ccc(S(=O)(=O)N2CCC(C(=O)N3CCC4(CC3)OCCO4)CC2)cc1,inactive,–
O=C(N/N=C/c1c(O)n(C2CC2)c(=S)[nH]c1=O)c1ccccc1Cl,"inconclusive: 35.5 µM [quencher, single point]",–
COc1cccc(C(=O)C2CCCN(Cc3ccc4nonc4c3)C2)c1 (stereo unspecified),"inconclusive: 15.8 µM [quencher, side channel, partial curve]",–
O=C1NC(=O)N(c2ccc3c(c2)OCO3)C(=O)/C1=C\c1ccsc1,inactive,–
